Test results from a collection of fitness landscapes (doi:10.1016/j.celrep.2020.107928).
Over roughly 81,000 sequences, “one-hybrid fitness for binding parS DNA” has its median near -0.17; the highest 2% begin near 0.51. The list shows a part of the results.

B1: Caulobacter ParB omega fusion; a variant is named by its letters at X, in order, B8GW30 (parent)
chain: MESVVVGEPGMSEGRRGLGRGLSALLGEVDAAPAQAPGEQLGGSREAPIEILQRNPDQPRRTFREEDLEDLSNSIREKGVLQPILVRPSPDTAGEYQIVAGERAWRAAQRAGLKTVPIMVRELDDLAVLEIGIIENVQRADLNVLEEALSYKVLMEKFERTQENIAQTIGKSXSHVANXMRLLXLPDEVQSYLVSGELTAXHARAIAAAADPVALAKQIIEGGLSVRETEALARKAPNLSAGKSKGGRPPRVKDTDTQALESDLSSVLGLDVSIDHRGSTGTLTITYATLEQLDDLCNRLTRGI

Variants of: B1
Assay: one-hybrid fitness for binding parS DNA (scaled: cognate 1, non-cognate 0); higher = stronger binding
Settings: with parS DNA site
How it was run: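 Pre- and post-selection plasmids were Illumina-sequenced, three replicate libraries were pooled, and any variant with under 10 reads was removed. The libraries were Caulobacter ParB with four specificity codons randomised, selected in E. coli USO through a HIS3 reporter whose site is 19 bp from the promoter. Cells grew 48 hours at 37°C on M9 without histidine, with 0.1 mM IPTG and 5 mM 3-AT. Fitness is the log change in variant-to-wild-type read ratio, rescaled against cognate and non-cognate.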

one-hybrid fitness for binding parS DNA, 0.205:
REQS

one-hybrid fitness for binding parS DNA, 0.262:
RFFN

one-hybrid fitness for binding parS DNA, 0.966:
RCLT

one-hybrid fitness for binding parS DNA, ≤ 0.2:
GKNC
ESHC
QDEN
WGFP
VAMM
YECS
GNVC
RDPT
AIYY
VWLF
YSFR
QAKM
TLTY
MTPL
RYKK
LRVV
SAAT
CRWF
QIYV
FAGT
TAPA
TEHR
CFQS
PRWC
QKRA
HKCC
EKPP
TCVT
WKMG
QMDV
QNSE
NGES
YWRG
CILY
KGPV
HEAR
QVWC
TSTP
GRGT
PPLM
DTLC
GSQS
PPVN
KNTF
TSWR
GCLL
DSHS
PSAD
ARNN
GWLS
QTRT
LSYT
DKKL
EGSG
KGYR
FYLG
SRYA
TTIF
FPHP
TGPN
EQYT
VSCW
VTFY
KIWG
HLTC
DRGR
GAWS
QVIL
TISA
YNKA
PTSR

one-hybrid fitness for binding parS DNA, 0.754:
RNAC

one-hybrid fitness for binding parS DNA, 0.98:
RTIG

one-hybrid fitness for binding parS DNA, 0.889:
RMDC
